Experimental data: US8129380B2, “Phthalazinone derivatives” (AstraZeneca AB, priority 2008, dated 2012)

What follows are compounds tested against Mammalian PARP, isolated from Hela cell nuclear extract (Homo sapiens, UniProt P09874) (assay: PARP inhibitory action (FlashPlate 3H-NAD assay)). Conditions: 30° C., NAD 5 μM.
Assay type: biochemical
Description: In order to assess the inhibitory action of the compounds, the following assay was used to determine IC50 values.
The total assay volume per well was 40 μl.
After 10 minutes incubation at 30° C. the reactions were initiated by the addition of a 10 μl reaction mixture, containing NAD (5 μM), ^3H-NAD and 30 mer double stranded DNA-oligos. Designated positive and negative reaction wells were done in combination with compound wells (unknowns) in order to calculate % enzyme activities. The plates were then shaken for 2 minutes and incubated at 30° C. for 45 minutes.
Following the incubation, the reactions were quenched by the addition of 50 μl 30% acetic acid to each well. The plates were then shaken for 1 hour at room temperature.
The plates were transferred to a TopCount NXT (TRADE MARK) (Packard, UK) for scintillation counting. Values recorded are counts per minute (cpm) following a 30 second counting of each well.
The % enzyme activity for each compound is then calculated using the following equation: […]
IC50 values (the concentration at which 50% of the enzyme activity is inhibited) were calculated, which are determined over a range of different concentrations, normally from 10 μM down to 0.001 μM. Such IC50 values are used as comparative values to identify increased compound potencies.

Chain of UniProt P09874 (P09874 whole entry): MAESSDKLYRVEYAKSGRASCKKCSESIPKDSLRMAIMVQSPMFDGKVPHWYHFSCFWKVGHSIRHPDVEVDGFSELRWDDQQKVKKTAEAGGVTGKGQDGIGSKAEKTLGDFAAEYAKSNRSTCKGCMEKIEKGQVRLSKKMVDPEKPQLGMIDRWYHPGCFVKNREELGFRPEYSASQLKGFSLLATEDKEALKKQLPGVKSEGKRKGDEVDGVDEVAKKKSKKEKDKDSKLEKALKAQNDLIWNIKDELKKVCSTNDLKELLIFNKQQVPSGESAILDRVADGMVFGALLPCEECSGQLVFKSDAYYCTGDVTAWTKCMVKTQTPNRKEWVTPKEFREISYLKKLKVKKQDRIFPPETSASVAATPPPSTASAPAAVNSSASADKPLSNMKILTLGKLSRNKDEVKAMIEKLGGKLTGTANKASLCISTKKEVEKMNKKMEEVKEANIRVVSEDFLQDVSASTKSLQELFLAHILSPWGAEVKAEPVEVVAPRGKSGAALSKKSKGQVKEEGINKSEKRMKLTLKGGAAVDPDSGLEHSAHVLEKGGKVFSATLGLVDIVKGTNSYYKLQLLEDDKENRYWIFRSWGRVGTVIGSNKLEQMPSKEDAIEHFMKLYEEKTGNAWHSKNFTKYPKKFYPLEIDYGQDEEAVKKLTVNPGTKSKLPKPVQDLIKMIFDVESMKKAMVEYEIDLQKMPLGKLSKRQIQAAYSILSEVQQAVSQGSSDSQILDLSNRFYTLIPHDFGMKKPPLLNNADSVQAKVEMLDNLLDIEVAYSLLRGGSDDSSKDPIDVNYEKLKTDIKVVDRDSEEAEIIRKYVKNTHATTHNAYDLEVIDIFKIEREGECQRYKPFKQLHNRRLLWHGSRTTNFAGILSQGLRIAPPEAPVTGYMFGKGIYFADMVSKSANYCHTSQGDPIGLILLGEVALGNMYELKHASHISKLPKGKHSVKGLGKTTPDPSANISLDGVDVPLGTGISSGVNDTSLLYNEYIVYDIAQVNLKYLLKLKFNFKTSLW

In order of rising IC50:
1. COc1ccnc(OC2CCN(C(=O)c3cc(Cc4n[nH]c(=O)c5ccccc45)ccc3F)CC2)c1 [Compound 26k]  1 nM
2. Cc1cnc(OC2CCN(C(=O)c3cc(Cc4n[nH]c(=O)c5ccccc45)ccc3F)CC2)c(C)n1 [Compound 26i]  2 nM
3. O=C(c1cc(Cc2n[nH]c(=O)c3ccccc23)ccc1F)N1CCC(OCC2CCCO2)CC1 (stereo not drawn) [Compound 20, 4-[[4-fluoro-3-[4-(oxolan-2-ylmethoxy)piperidine-1-carbonyl]phenyl]methyl]-2H-phthalazin-1-one]  5 nM
4. CCCOC1CCN(C(=O)c2cc(Cc3n[nH]c(=O)c4ccccc34)ccc2F)CC1 [Compound 8c, 4-[[4-fluoro-3-(4-propoxypiperidine-1-carbonyl)phenyl]methyl]-2H-phthalazin-1-one]  5 nM
5. Cc1cccc(OC2CCN(C(=O)c3cc(Cc4n[nH]c(=O)c5ccccc45)ccc3F)CC2)n1 [Compound 39, 4-(4-fluoro-3-(4-(6-methylpyridin-2-yloxy)piperidine-1-carbonyl)benzyl)phthalazin-1(2H)-one]  5 nM
6. COC1(C)CCN(C(=O)c2cc(Cc3n[nH]c(=O)c4ccccc34)ccc2F)CC1 [Compound 24, 4-[[4-fluoro-3-(4-methoxy-4-methylpiperidine-1-carbonyl)phenyl]methyl]-2H-phthalazin-1-one]  6 nM
7. O=C(COC1CCN(C(=O)c2cc(Cc3n[nH]c(=O)c4ccccc34)ccc2F)CC1)N1CC(F)(F)C1 [Compound 89, 4-(3-(4-(2-(3,3-difluoroazetidin-1-yl)-2-oxoethoxy)piperidine-1-carbonyl)-4-fluorobenzyl)phthalazin-1(2H)-one]  7 nM
8. O=C(c1cc(Cc2n[nH]c(=O)c3ccccc23)ccc1F)N1CCC(O)CC1 [Compound 2a, 4-(4-fluoro-3-(4-hydroxypiperidine-1-carbonyl)benzyl)phthalazin-1(2H)-one]  7 nM
9. O=C(c1cc(Cc2n[nH]c(=O)c3ccccc23)ccc1F)N1CCC2(CC1)OCc1ccccc12 [Compound 9, 4-(4-fluoro-3-(3H-spiro[isobenzofuran-1,4′-piperidine]-1′-ylcarbonyl)benzyl)phthalazin-1(2H)-one]  7 nM
10. NC(=O)c1ccnc(OC2CCN(C(=O)c3cc(Cc4n[nH]c(=O)c5ccccc45)ccc3F)CC2)c1 [Compound 26g]  7 nM
11. CC(C)OC1CCN(C(=O)c2cc(Cc3n[nH]c(=O)c4ccccc34)ccn2)CC1 [Compound 25, 4-[[2-(4-propan-2-yloxypiperidine-1-carbonyl)pyridin-4-yl]methyl]-2H-phthalazin-1-one]  7 nM
12. COCCOC1CCN(C(=O)c2cc(Cc3n[nH]c(=O)c4ccccc34)ccc2F)CC1 [Compound 7, 4-(4-fluoro-3-(4-(2-methoxyethoxy)piperidine-1-carbonyl)benzyl)phthalazin-1(2H)-one]  8 nM
13. COC1CCN(C(=O)c2cc(Cc3n[nH]c(=O)c4cc(Cl)ccc34)ccc2F)CC1 [Compound 69, 7-chloro-4-(4-fluoro-3-(4-methoxypiperidine-1-carbonyl)benzyl)phthalazin-1(2H)-one]  8 nM
14. COC[C@H](C)OC1CCN(C(=O)c2cc(Cc3n[nH]c(=O)c4ccccc34)ccc2F)CC1 [Compound 93, (S)-4-(4-fluoro-3-(4-(1-methoxypropan-2-yloxy)piperidine-1-carbonyl)benzyl)phthalazin-1(2H)-one]  8 nM
15. O=C(c1cc(Cc2n[nH]c(=O)c3ccccc23)ccn1)N1CCC(Oc2ccccn2)CC1 [Compound 6f]  8 nM
16. COC1CCN(C(=O)c2cc(Cc3n[nH]c(=O)c4cccc(Cl)c34)ccc2F)CC1 [Compound 104a, 5-chloro-4-(4-fluoro-3-(4-methoxypiperidine-1-carbonyl)benzyl)phthalazin-1(2H)-one]  9 nM
17. O=C(COC1CCN(C(=O)c2cc(Cc3n[nH]c(=O)c4ccccc34)ccc2F)CC1)N1CCCC1 [Compound 107, 4-(4-fluoro-3-(4-(2-oxo-2-(pyrrolidin-1-yl)ethoxy)piperidine-1-carbonyl)benzyl)phthalazin-1(2H)-one]  9 nM
18. O=C(c1cc(Cc2n[nH]c(=O)c3ccccc23)ccc1F)N1CCC(OC2CCC2)CC1 [Compound 15, 4-(3-(4-cyclobutoxypiperidine-1-carbonyl)-4-fluorobenzyl)phthalazin-1(2H)-one]  10 nM
19. Cc1ccc(OC2CCN(C(=O)c3cc(Cc4n[nH]c(=O)c5ccccc45)ccc3F)CC2)nn1 [Compound 26b]  10 nM
20. COC1CCN(C(=O)c2cc(Cc3n[nH]c(=O)c4ccc(N)cc34)ccc2F)CC1 [Compound 99, 6-amino-4-(4-fluoro-3-(4-methoxypiperidine-1-carbonyl)benzyl)phthalazin-1(2H)-one]  11 nM
21. CCOC1CCN(C(=O)c2cc(Cc3n[nH]c(=O)c4c(C)n(C)c(C)c34)ccc2F)CC1 [Compound 56, 4-(3-(4-ethoxypiperidine-1-carbonyl)-4-fluorobenzyl)-5,6,7-trimethyl-2,6-dihydro-1H-pyrrolo[3,4-d]pyridazin-1-one]  14 nM
22. COC1CCN(C(=O)c2cccc(Cc3n[nH]c(=O)c4cccc(Cl)c34)c2)CC1 [Compound 119a, 5-chloro-4-(3-(4-methoxypiperidine-1-carbonyl)benzyl)phthalazin-1(2H)-one]  21 nM
23. O=C(c1cc(Cc2n[nH]c(=O)c3ccccc23)ccc1F)N1CCC(OCCN2CCCC2)CC1 [Compound 110, 4-(4-fluoro-3-(4-(2-(pyrrolidin-1-yl)ethoxy)piperidine-1-carbonyl)benzyl)phthalazin-1(2H)-one]  22 nM
24. COC1CCN(C(=O)c2cccc(Cc3n[nH]c(=O)c4ccccc34)c2)CC1 [Compound 47b, 4-(3-(4-methoxypiperidine-1-carbonyl)benzyl)phthalazin-1(2H)-one]  30 nM
25. COC1CCN(C(=O)c2cc(Cc3n[nH]c(=O)c4c[nH]c(C)c34)ccc2F)CC1 [Compound 63, 4-(4-fluoro-3-(4-methoxypiperidine-1-carbonyl)benzyl)-5-methyl-2,6-dihydro-1H-pyrrolo[3,4-d]pyridazin-1-one]  69 nM
26. COC1CCN(C(=O)c2cc(Cc3n[nH]c(=O)c4ccc(Br)cc34)ccc2F)CC1 [Compound 98, 6-bromo-4-(4-fluoro-3-(4-methoxypiperidine-1-carbonyl)benzyl)phthalazin-1(2H)-one]  135 nM
27. Cc1ccnc(OC2CCN(C(=O)c3cc(Cc4n[nH]c(=O)c5ccccc45)ccc3F)CC2)c1 [Compound 72d]  1030 nM
